About 540 (0.36%) of roughly 150,000 compounds showed an effect of 50% or more. This is one part of the list.

The test system of the assay is Plasmodium falciparum. The assay can be described thus: Primary screen in NF54 nanoGlo assay, in single point, at 2uM, 72h; a lower Z score goes with more inhibition. The class given is functional, Erythrocyte. Particulars: timepoint 72 hour.
The % Inhibition is the change of the read-out against control, counted positive when it falls. Regarding `CCN(C)C(=O)c1coc(CN(Cc2ccc3c(c2)OCO3)Cc2ccccc2F)n1`, the “% Inhibition” value is reported as -10% and the Z score was 1.66.
`CCOc1cc(CN[C@@H](CO)c2ccccc2)c(Cl)cc1OC(C)C`: the “% Inhibition” value is listed as -1% and the Z score came to 0.15.
The like results for `COc1cc2c(cc1OC)C1(CCCCC1)CN(C)C2` were, in that order, -3% and 0.39.
The like results for `O=c1cc([C@H]2CCCN(Cc3ccco3)C2)nc(-c2cnccn2)[nH]1` were, in that order, -2% and 0.34.
Regarding `CCc1ncc(C(=O)N(Cc2sccc2C)[C@@H](C)CC)cn1`, the “% Inhibition” value was -6% and the Z score stood at 0.83.
The like results for `O=C1N[C@H]2CN(C(=O)CCC3CCC3)C[C@@H]2OCc2cn(nn2)CCOc2cccnc21` were, in that order, -9% and 1.1.
On to `O=C(CNc1cc(S(=O)(=O)N2CCOCC2)ccc1NC[C@H]1CCCO1)Nc1ccccc1`, for which the “% Inhibition” value was 15% and the Z score is given as -1.74.
Consider `O=C(c1ccc(F)cc1)N(CC(=O)N1CCc2sccc2C1COc1ccccc1)CC1CCCO1` (centres undefined), for which the “% Inhibition” value amounted to 2% and the Z score was -0.36.
The like results for `CC1(C)CC(NC(=O)c2cc(C3CC3)nc3ccccc23)CC(C)(C)N1` were, in that order, 11% and -1.22.
The like results for `N[C@H]1CCO[C@@H]1c1cncc(-c2ccccc2)c1` were, in that order, -7% and 0.94.
The like results for `Cc1nc(-c2ccccc2)nn1[C@H]1CCN(S(=O)(=O)c2cccnc2)C1` were, in that order, -14% and 1.88.
As for `CCCCN(CCC(=O)NCCOC)C(=O)c1cc(C)oc1C`, the “% Inhibition” value is listed as 7% and the Z score is -0.85.
The like results for `Cc1ccccc1[C@@H](NC(=O)NCC1(O)CCN(C)CC1)c1ccncc1` were, in that order, 7% and -1.44.
The like results for `CCN(Cc1noc(C)n1)C(=O)c1cccc(-c2nc(C)cnc2C)c1` were, in that order, -5% and 0.98.
The like results for `CC[C@H](C)N1CCN(C(=O)C2CCN(c3ccncc3C)CC2)CC1` were, in that order, 3% and -0.44.
Turning to `CC(C)c1nccn1CC(=O)N1CCC(=O)N2CCC[C@@H]21`, the “% Inhibition” value is recorded as 0% and the Z score turned out to be 0.02.
The like results for `CC(C)(C)NC(=O)[C@@H]1C[C@@H]2CCCC[C@@H]2CN1Cc1ncccc1C(=O)O` were, in that order, 7% and -1.32.
The like results for `O=C(Nc1ccccc1)N1C(=O)C2(OCCO2)c2ccccc21` were, in that order, 8% and -0.97.
The like results for `C[C@H]1CN(C)C[C@@H](C(=O)N2CCn3c(cnc3C(F)(F)F)C2)O1` were, in that order, 7% and -0.95.
As to `O=C(NCC1Cc2c(ccc3cc(-c4cccnc4)ccc23)O1)C1CCCO1` (centres undefined), the “% Inhibition” value is recorded as -22% and the Z score was found to be 3.09.
The like results for `Cc1nc[nH]c1CN1CCc2[nH]cnc2[C@H]1c1ccc(Cl)c(Cl)c1` were, in that order, 2% and -0.19.
The like results for `CC(C)c1cnc(COc2ccc3c(c2)OCO3)o1` were, in that order, -9% and 1.05.
The like results for `CC[C@@H](C(=O)Nc1cc(OC)ccc1OC)n1c(C(=O)c2cccc(F)c2)nc2ccccc21` were, in that order, -12% and 1.54.
On to `COc1ccc(-c2nnc(N3CCN(C)C[C@@H]3C)s2)cc1`, for which the “% Inhibition” value was -1% and the Z score was 0.21.
The like results for `COCCN(CC(=O)N1N=C(c2cccn2C)C[C@H]1c1ccccc1)C(=O)c1ccccc1F` were, in that order, -1% and 0.08.
The like results for `CC1CCC(CNC(=O)OC(C)(C)C)N(C(=O)c2cnccn2)C1C` (centres undefined) were, in that order, -4% and 0.68.
`COc1ccc(OCc2cc(C(=O)N3[C@H](C)CC[C@H]3C)n[nH]2)c(Cl)c1`: the “% Inhibition” value turned out to be 9% and the Z score is -1.61.
The like results for `CN[C@@H](C)C(=O)NCCCn1c(C)cccc1=O` were, in that order, -13% and 2.33.
The like results for `O=C(CN1C(=O)c2cc(Cl)c(Cl)cc2C1=O)N1CCCCCC1` were, in that order, -18% and 2.
The like results for `CC(C)(Oc1cc2c(cc1-c1cccnc1)CCO2)C(=O)O` were, in that order, -11% and 2.04.
Take `C[C@@H](C1CC1)N(CCC#N)Cc1ccncc1`: the “% Inhibition” value is recorded as -4% and the Z score was 0.37.
The like results for `COc1cc(C(=O)NCCc2ccc(F)cc2)ccc1OCC(=O)N1CCOCC1` were, in that order, -18% and 1.71.
With `O=S(=O)(N[C@H]1CCOc2ccccc21)N1CCOCC1`, the “% Inhibition” value was 2% and the Z score is reported as -0.23.
As for `CC(CC(O)c1ccco1)NC(=O)NCc1cnc(N(C)C)n1C` (centres undefined), the “% Inhibition” value is -8% and the Z score was 1.02.
The like results for `COCC1(C(=O)Nc2ccn3ccnc3c2)CCC1` were, in that order, -18% and 3.82.
The like results for `CC(C)N1CC[C@H](N2CCN(c3cccc(C(F)(F)F)c3)CC2)[C@H](CCC(=O)N2CCCCCC2)C1` were, in that order, 0% and -0.03.
As for `Cc1c(Cl)cccc1S(=O)(=O)N1CC[C@H](Oc2ncc(Cl)cn2)C1`, the “% Inhibition” value was found to be 2% and the Z score is reported as -0.3.
The like results for `O=C(O)COc1cccc(CNC(=O)[C@@H]2CCCc3sccc32)c1` were, in that order, -15% and 1.84.
In the case of `COc1ccc2c(c1)[C@@H](n1cc(-c3nccn3C)nn1)CC(C)(C)O2`, the “% Inhibition” value is given as -8% and the Z score turned out to be 1.38.
In the case of `Cc1ccc2c(c1)CC[C@@H](C(=O)Nc1ccnn1C1CCC1)O2`, the “% Inhibition” value is on record as 2% and the Z score is recorded as -0.25.
The like results for `CCc1nc2nn3c(=O)c(C(C)(C)C)n[nH]c3c2c(=O)[nH]1` were, in that order, -27% and 3.16.
For the compound `Cc1cccc(NC(=O)CN2CCC(COCc3ccccc3)CC2)c1C`, the “% Inhibition” value is on record as -14% and the Z score is 1.56.
The like results for `O=C(Nc1cc2ccccc2cc1NC(=O)c1ccc2c(c1)OCCO2)c1ccc2c(c1)OCCO2` were, in that order, 2% and -0.29.
The like results for `N#Cc1oc2ccccc2c1NS(=O)(=O)c1ccccc1` were, in that order, 7% and -1.08.
The like results for `Cc1nc(C(C)C)sc1C(=O)N(C)Cc1ccc2c(c1)OCO2` were, in that order, 8% and -1.56.
Regarding `Cc1ccc2[nH]c(=O)cc(C(=O)N3CCC(n4cc(C(C)(C)C)nn4)CC3)c2c1`, the “% Inhibition” value is on record as -11% and the Z score was 2.07.
The like results for `O=C(Cn1cnc2ccccc21)NCc1cncc(-c2ccsc2)c1` were, in that order, -8% and 1.21.
For the compound `COc1cc(F)c(CN2CCC[C@@H]2CN2CCCC2)cc1OC`, the “% Inhibition” value was found to be 18% and the Z score was -2.33.
The like results for `O=C(O)[C@H]1CCCN(c2nc(-c3ccsc3)nc3ccccc23)C1` were, in that order, -12% and 2.15.
The like results for `COCCO[C@H]1CCN(c2ccnc(C#N)c2)C1` were, in that order, -7% and 0.97.
The like results for `O=C(c1cnc(COc2ccc(F)cc2)nc1O)N1CCOCC1` were, in that order, -1% and 0.22.
For `CS(=O)(=O)N1CCO[C@@H](CNC(=O)c2cnn(Cc3ccccc3)c2)C1`, the “% Inhibition” value is listed as -7% and the Z score was determined as 1.3.
